Source: the supplement of paper PMC6531468
Some of the results follow. These are enrichments in a pooled selection; single values are uncertain. Each score is taken over the longer molecules that contain the sequence shown.

Key:
Assay in all cases: 6-mer SELEX enrichment z-score vs GST control; IMP3 is the RNA-binding protein IGF2BP3; higher = more enriched by binding
IMP3 KH1-4 = conditions: construct: KH1-4 (164-579); SELEX round: R4
Experimental: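 SELEX-seq with GST-tagged IMP3 KH1-4 (Pro164-Lys579) and an N40 RNA pool, round 4. 6-mer z-score of sequence-tag enrichment normalised to the corresponding GST SELEX round; RNA k-mers written as DNA (T for U).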

IMP3 RRM1-2 = conditions: construct: RRM1-2 (1-163); SELEX round: R2
Sequence of IMP3 RRM1-2 (chain, as listed by the source): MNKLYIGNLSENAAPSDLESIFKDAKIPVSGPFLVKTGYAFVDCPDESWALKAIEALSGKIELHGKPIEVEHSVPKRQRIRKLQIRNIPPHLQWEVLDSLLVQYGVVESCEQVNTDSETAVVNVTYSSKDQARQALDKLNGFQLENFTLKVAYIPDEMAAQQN
Experimental: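 SELEX-seq with GST-tagged IMP3 RRM1-2 (Met1-Asn163) and an N40 RNA pool, round 2. 6-mer enrichment z-score normalised to GST SELEX. RNA written as DNA (T = U).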

IMP3 full-length = IMP3 full-length (UniProt O00425); conditions: construct: FL IMP3 (1-579); SELEX round: R4
Sequence of UniProt O00425 (O00425 whole entry): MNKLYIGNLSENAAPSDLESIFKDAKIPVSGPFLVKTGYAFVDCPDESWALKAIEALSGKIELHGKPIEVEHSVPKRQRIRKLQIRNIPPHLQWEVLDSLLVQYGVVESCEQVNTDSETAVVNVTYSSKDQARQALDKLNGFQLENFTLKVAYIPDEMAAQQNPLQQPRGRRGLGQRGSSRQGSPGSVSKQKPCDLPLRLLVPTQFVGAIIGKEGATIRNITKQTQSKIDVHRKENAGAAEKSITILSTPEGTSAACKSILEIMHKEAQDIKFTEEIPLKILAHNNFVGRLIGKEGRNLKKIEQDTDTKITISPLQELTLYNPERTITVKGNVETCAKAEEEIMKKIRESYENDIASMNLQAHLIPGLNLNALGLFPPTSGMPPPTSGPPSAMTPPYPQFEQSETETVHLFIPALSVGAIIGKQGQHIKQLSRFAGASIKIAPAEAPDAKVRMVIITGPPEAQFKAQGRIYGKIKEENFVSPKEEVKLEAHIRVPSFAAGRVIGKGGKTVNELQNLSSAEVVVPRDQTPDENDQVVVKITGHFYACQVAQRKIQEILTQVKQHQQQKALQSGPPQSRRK
Experimental: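 SELEX-seq with GST-tagged full-length IMP3 and an N40 RNA pool, round 4. Each 6-mer is scored as an enrichment z-score of sequence tags containing it, normalised to the matching GST SELEX round. RNA written as DNA (T = U).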

IMP3 KH1-2 = conditions: construct: KH1-2 (164-376); SELEX round: R4
Sequence of IMP3 KH1-2 (chain, as listed by the source): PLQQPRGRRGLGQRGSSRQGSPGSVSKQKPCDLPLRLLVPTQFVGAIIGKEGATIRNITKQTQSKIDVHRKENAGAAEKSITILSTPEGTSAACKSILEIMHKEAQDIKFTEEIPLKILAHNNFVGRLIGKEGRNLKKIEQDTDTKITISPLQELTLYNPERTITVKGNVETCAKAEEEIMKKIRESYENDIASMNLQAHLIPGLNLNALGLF
Experimental: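 SELEX-seq with GST-tagged IMP3 KH1-2 (Pro164-Phe376) and an N40 RNA pool, round 4 (stringent 300/600 mM KCl washes). 6-mer z-score of sequence-tag enrichment normalised to the corresponding GST SELEX round; RNA k-mers written as DNA (T for U).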

IMP3 KH3-4 = conditions: construct: KH3-4 (377-579); SELEX round: R4
Sequence of IMP3 KH3-4 (chain, as listed by the source): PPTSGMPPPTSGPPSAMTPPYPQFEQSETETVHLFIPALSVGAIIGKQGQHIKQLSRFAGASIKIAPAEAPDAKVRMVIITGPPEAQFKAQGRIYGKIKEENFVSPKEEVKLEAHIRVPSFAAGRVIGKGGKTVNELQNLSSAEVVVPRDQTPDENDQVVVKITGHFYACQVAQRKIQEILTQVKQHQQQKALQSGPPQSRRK
Experimental: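 SELEX-seq with GST-tagged IMP3 KH3-4 (Pro377-Lys579) and an N40 RNA pool, round 4. 6-mer z-score of sequence-tag enrichment normalised to the corresponding GST SELEX round; RNA k-mers written as DNA (T for U).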

Sequence of IMP3 KH1-4 (chain, as listed by the source): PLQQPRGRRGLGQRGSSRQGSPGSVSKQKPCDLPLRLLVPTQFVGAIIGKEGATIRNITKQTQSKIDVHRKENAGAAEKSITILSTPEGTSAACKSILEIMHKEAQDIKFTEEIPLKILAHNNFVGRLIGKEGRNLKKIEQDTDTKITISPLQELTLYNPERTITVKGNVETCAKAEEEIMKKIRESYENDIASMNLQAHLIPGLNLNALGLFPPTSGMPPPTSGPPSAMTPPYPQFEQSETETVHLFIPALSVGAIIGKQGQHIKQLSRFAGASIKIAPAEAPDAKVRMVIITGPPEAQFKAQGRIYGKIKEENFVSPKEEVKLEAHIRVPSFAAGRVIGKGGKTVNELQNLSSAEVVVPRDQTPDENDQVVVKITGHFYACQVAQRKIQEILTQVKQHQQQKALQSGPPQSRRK

Sequence	6-mer SELEX enrichment z-score (IMP3 KH1-4)	6-mer SELEX enrichment z-score (IMP3 RRM1-2)	6-mer SELEX enrichment z-score (IMP3 full-length)	6-mer SELEX enrichment z-score (IMP3 KH1-2)	6-mer SELEX enrichment z-score (IMP3 KH3-4)
GCGTTT	-0.834	0.476	-0.2	-0.62	-0.475
GGAAGG	0.907	-0.411	0.343	0.91	0.822
GAACGG	0.059	-1.03	0.126	-0.125	0.131
CTGGTA	-0.328	0.278	-0.046	-0.235	-0.199
ATGATG	1.59	-0.367	-0.084	0.955	1.83
TTACGC	0.482	0.125	0.036	0.38	0.392
TTAGGT	0.227	0.454	0.23	0.278	0.476
CGTCCT	-0.236	-0.017	0.018	-0.288	-0.416
GAGACT	-0.541	-0.622	-0.649	-0.494	-0.334
CGATGA	0.04	-1.01	-0.602	-0.036	0.243
CTATCC	-0.528	-0.187	-0.653	-0.429	-0.703
GATCAT	0.99	1.28	1.2	0.685	0.922
AAAGCT	-0.918	-0.861	-0.962	-0.879	-0.735
ACCCCA	-1.13	-1.03	-1.37	-1.08	-2.06
GGCTCG	-0.189	0.501	0.388	-0.056	-0.014
ACTCTA	-0.35	-0.081	-0.599	-0.277	-0.348
TCACAC	1.46	3.05	2.16	1.65	0.331
TTTTCT	0.87	0.536	0.366	0.931	0.955
TGTTCA	0.593	0.305	0.379	0.45	0.501
TCGGGC	-0.892	0.499	0.361	-0.72	-0.595

Sequence	6-mer SELEX enrichment z-score (IMP3 KH1-4)	6-mer SELEX enrichment z-score (IMP3 RRM1-2)	6-mer SELEX enrichment z-score (IMP3 full-length)	6-mer SELEX enrichment z-score (IMP3 KH1-2)	6-mer SELEX enrichment z-score (IMP3 KH3-4)
GCAGGC	1.44	0.39	1.87	1.13	0.972
GCGATG	-0.402	-0.425	-0.25	-0.385	-0.217
TTGCGT	-0.956	0.404	-0.496	-0.812	-0.597
GCCGTT	-0.196	0.011	0.068	-0.04	-0.102
AGCGCC	-1.5	-0.226	-0.12	-1.26	-1.5
TAGTAG	0.087	0.251	-0.002	0.029	0.273
TGGCAA	0.635	0.223	0.639	0.37	0.688
ATGGTT	0.227	0.375	0.19	0.201	0.381
GGAGTG	0.128	-0.132	-0.005	0.186	0.187
CGAACC	-2.17	-1.19	-1.62	-1.93	-2.47
GTATTA	0.085	0.042	-0.155	0.061	0.379
CACGAA	-0.231	-0.346	-0.074	-0.242	-0.4
GCGGTC	0.228	0.303	0.665	0.153	0.176
ACTAAT	1.35	-0.016	-0.09	1.27	1.78
CCCCGT	-0.409	-0.449	-0.263	-0.27	-0.814
GCACCT	-0.587	-0.007	-0.129	-0.577	-0.774
TCATAG	0.609	1.08	0.912	0.454	0.546
TTACAC	1.19	0.774	0.633	1.55	0.949
CATGTC	0.57	0.833	0.9	0.232	0.126
TTTTAC	0.721	0.112	0.03	0.817	1.09

Sequence	6-mer SELEX enrichment z-score (IMP3 KH1-4)	6-mer SELEX enrichment z-score (IMP3 RRM1-2)	6-mer SELEX enrichment z-score (IMP3 full-length)	6-mer SELEX enrichment z-score (IMP3 KH1-2)	6-mer SELEX enrichment z-score (IMP3 KH3-4)
TTTGGT	0.028	0.572	0.209	0.121	0.285
CTCAGC	-1.22	0.552	0.036	-0.977	-1.08
TACCTA	-1.29	-0.436	-1.2	-1.22	-1.3
GGTCAT	0.44	0.467	0.618	0.325	0.481
GAGTTT	-0.261	0.22	-0.185	-0.204	0.07
GTAACG	-0.693	-0.571	-0.594	-0.696	-0.57
TCGCTA	0.433	0.13	0.097	0.376	0.349
TGCTAG	0.046	0.13	-0.047	0.014	0.106
TTGTAT	0.465	0.212	0.047	0.286	0.649
TAGCCG	-0.328	-0.181	-0.155	-0.302	-0.376
GGCTGC	0.593	0.297	0.928	0.467	0.407
TGTCTG	-0.062	0.239	0.085	-0.066	-0.025
AGTTAT	0.225	0.062	-0.136	0.1	0.26
CCTCAC	-0.532	0.568	-0.311	-0.468	-1.12
GACACA	1.19	2.05	1.87	1.21	0.574
CAGGAG	0.408	0.185	0.748	0.343	0.177
TTTAGG	0.375	0.39	0.242	0.31	0.668
TCCGAT	-0.333	-0.22	-0.315	-0.14	-0.46
TCCAGG	0.158	0.194	0.192	0.037	-0.073
GGTTGC	0.013	0.378	0.075	0.005	0.048
